Measured values reported in US20250368649A1, “TETRAHYDROPYRIDOPYRIMIDINE PAN-KRAS INHIBITORS” (Mirati Therapeutics, Inc., priority 2022, published 2025).

Legend:
H358 cells = assay: Inhibition of KRas-mediated phosphorylation of ERK (Cisbio HTRF pERK), H358 cells; assay type: cell-based; conditions: Homo sapiens; for IC50: NCI-H358, 3 h, 3 hr compound incubation, Cisbio pERK HTRF; for inhibition at 0.1 µM: NCI-H358, single point at 100 nM, 3 hrs compound incubation
A549 cells = assay: Inhibition of KRas-mediated phosphorylation of ERK (Cisbio HTRF pERK), A549 cells; assay type: cell-based; conditions: Homo sapiens; for IC50: A549, 3 h, 3 hr compound incubation, Cisbio pERK HTRF; for inhibition at 0.1 µM: single point at 100 nM, 3 hrs compound incubation
KRas WT = KRas WT (Homo sapiens, UniProt P01116); assay: KRas binding assay (TR-FRET displacement), KRas WT; conditions: for inhibition at 0.01 µM: single point, 10 nM compound; for IC50: TR-FRET displacement
H460 cells = assay: Inhibition of KRas-mediated phosphorylation of ERK (Cisbio HTRF pERK), H460 cells; assay type: cell-based; conditions: Homo sapiens; for IC50: NCI-H460, 3 h, 3 hr compound incubation, Cisbio pERK HTRF; for inhibition at 0.1 µM: NCI-H460, single point at 100 nM, 3 hrs compound incubation
KRas Q61H = KRas Q61H (Homo sapiens, UniProt P01116, Q61H); assay: KRas binding assay (TR-FRET displacement), KRas Q61H; conditions: for inhibition at 0.01 µM: single point, 10 nM compound; for IC50: TR-FRET displacement
KRas G12C = KRas G12C (Homo sapiens, UniProt P01116, G12C); assay type: binding; conditions: for inhibition at 0.01 µM: single point, 10 nM compound, read-out: Binding to KRas (% inhibition at 10 nM) G12C; for IC50: TR-FRET displacement, read-out: Binding to KRas (IC50 nM) G12C
MKN1 cells = assay: Inhibition of KRas-mediated phosphorylation of ERK (Cisbio HTRF pERK), MKN1 cells; assay type: cell-based; conditions: Homo sapiens, MKN-1, 3 hour compound incubation
Procedure, shortened: (§1)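 On the first day, plate 6,000 cells into each well in RPMI medium with 10% fetal bovine serum.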

KRas G12S = KRas G12S (Homo sapiens, UniProt P01116, G12S); assay type: binding; conditions: for inhibition at 0.01 µM: single point, 10 nM compound, read-out: Binding to KRas (% inhibition at 10 nM) G12S; for IC50: TR-FRET displacement, read-out: Binding to KRas (IC50 nM) G12S
KRas G12A = KRas G12A (Homo sapiens, UniProt P01116, G12A); assay type: binding; conditions: for inhibition at 0.01 µM: single point, 10 nM compound, read-out: Binding to KRas (% inhibition at 10 nM) G12A; for IC50: TR-FRET displacement, read-out: Binding to KRas (IC50 nM) G12A
H727 cells = assay: Inhibition of KRas-mediated phosphorylation of ERK (Cisbio HTRF pERK), H727 cells; assay type: cell-based; conditions: Homo sapiens; for IC50: NCI-H727, 3 h, 3 hr compound incubation, Cisbio pERK HTRF; for inhibition at 0.1 µM: NCI-H727, single point at 100 nM, 3 hrs compound incubation
KRas G13D = KRas G13D (Homo sapiens, UniProt P01116, G13D); assay type: binding; conditions: for inhibition at 0.01 µM: single point, 10 nM compound, read-out: Binding to KRas (% inhibition at 10 nM) G13D; for IC50: TR-FRET displacement, read-out: Binding to KRas (IC50 nM) G13D
PSN1 cells = assay: Inhibition of KRas-mediated phosphorylation of ERK (Cisbio HTRF pERK), PSN1 cells; assay type: cell-based; conditions: Homo sapiens, PSN1, 3 h, 3 hour compound incubation, Cisbio pERK HTRF
Procedure, shortened: as §1

HCT116 cells = assay: Inhibition of KRas-mediated phosphorylation of ERK (Cisbio HTRF pERK), HCT116 cells; assay type: cell-based; conditions: Homo sapiens; for IC50: HCT-116, 3 h, 3 hr compound incubation, Cisbio pERK HTRF; for inhibition at 0.1 µM: HCT-116, single point at 100 nM, 3 hrs compound incubation
ASPC1 cells = assay: Inhibition of KRas-mediated phosphorylation of ERK (Cisbio HTRF pERK), ASPC1 cells; assay type: cell-based; conditions: Homo sapiens, AsPC-1 cells; for IC50: ASPC1, 3 h, 3 hr compound incubation, Cisbio pERK HTRF; for inhibition at 0.1 µM: ASPC1, single point at 100 nM, 3 hrs compound incubation

CCc1c(F)ccc2cc(O)cc(N3CCc4c(nc(OC[C@@]56CCCN5C[C@H](F)C6)nc4N4CCCn5nc(C(=O)N6CCC7CC7C6)cc5C4)C3)c12 (stereo partly drawn) [Example 332, 3-azabicyclo[4.1.0]heptan-3-yl(5-(7-(8-ethyl-7-fluoro-3-hydroxynaphthalen-1-yl)-2-(((2R,7aS)-2-fluorohexahydro-1H-pyrrolizin-7a-yl)methoxy)-5,6,7,8-tetrahydropyrido[3,4-d]pyrimidin-4-yl)-5,6,7,8-tetrahydro-4H-pyrazolo[1,5-a][1,4]diazepin-2-yl)methanone]
IC50 (H358 cells): 6 nM
inhibition at 0.1 µM (H358 cells): 100%
IC50 (A549 cells): 28 nM
inhibition at 0.1 µM (A549 cells): 87%
inhibition at 0.01 µM (KRas WT): 93%
IC50 (H460 cells): 43 nM
inhibition at 0.1 µM (H460 cells): 80%
inhibition at 0.01 µM (KRas Q61H): 95%
inhibition at 0.01 µM (KRas G12C): 98%
IC50 (MKN1 cells): 10.4 nM
inhibition at 0.01 µM (KRas G12S): 97%
inhibition at 0.01 µM (KRas G12A): 94%
IC50 (H727 cells): 9 nM
inhibition at 0.01 µM (KRas G13D): 93%
IC50 (PSN1 cells): 6240 nM
IC50 (HCT116 cells): 221 nM
inhibition at 0.1 µM (HCT116 cells): 38%
IC50 (ASPC1 cells): 5 nM

CCc1c(F)ccc2cc(O)cc(N3CCc4c(nc(OC[C@@]56CCCN5C[C@H](F)C6)nc4N4CCCn5nc(C(=O)N6CC7CC6CCO7)cc5C4)C3)c12 (stereo partly drawn) [Example 322, 2-oxa-6-azabicyclo[3.2.1]octan-6-yl(5-(7-(8-ethyl-7-fluoro-3-hydroxynaphthalen-1-yl)-2-(((2R,7aS)-2-fluorohexahydro-1H-pyrrolizin-7a-yl)methoxy)-5,6,7,8-tetrahydropyrido[3,4-d]pyrimidin-4-yl)-5,6,7,8-tetrahydro-4H-pyrazolo[1,5-a][1,4]diazepin-2-yl)methanone]
IC50 (H358 cells): 2 nM
inhibition at 0.1 µM (H358 cells): 104%
IC50 (A549 cells): 12 nM
inhibition at 0.1 µM (A549 cells): 86%
inhibition at 0.01 µM (KRas WT): 97%
IC50 (H460 cells): 23 nM
inhibition at 0.1 µM (H460 cells): 88%
inhibition at 0.01 µM (KRas Q61H): 98%
inhibition at 0.01 µM (KRas G12C): 99%
IC50 (MKN1 cells): 3.1 nM
inhibition at 0.01 µM (KRas G12S): 99%
inhibition at 0.01 µM (KRas G12A): 97%
IC50 (H727 cells): 2 nM
inhibition at 0.1 µM (H727 cells): 80%
inhibition at 0.01 µM (KRas G13D): 97%
IC50 (PSN1 cells): 1300 nM
IC50 (HCT116 cells): 80 nM
inhibition at 0.1 µM (HCT116 cells): 77%
IC50 (ASPC1 cells): 1 nM
inhibition at 0.1 µM (ASPC1 cells): 98%

Cc1cc2[nH]ncc2c(N2CCc3c(nc(OCC4(CN(C)C)CC4)nc3N3CCCC4(CNS(=O)(=O)N4)C3)C2)c1C (stereo not drawn) [Example 511, 7-(7-(5,6-dimethyl-1H-indazol-4-yl)-2-((1-((dimethylamino)methyl)cyclopropyl)methoxy)-5,6,7,8-tetrahydropyrido[3,4-d]pyrimidin-4-yl)-2-thia-1,3,7-triazaspiro[4.5]decane 2,2-dioxide]
inhibition at 0.1 µM (H358 cells): -22%
inhibition at 0.1 µM (A549 cells): 1%
IC50 (KRas WT): 30 nM
inhibition at 0.1 µM (H460 cells): -7%
IC50 (KRas Q61H): 32 nM
IC50 (KRas G12C): 20 nM
IC50 (MKN1 cells): 169 nM
IC50 (KRas G12S): 30 nM
IC50 (KRas G12A): 34 nM
IC50 (H727 cells): > 10000 nM
inhibition at 0.1 µM (H727 cells): 9%
IC50 (KRas G13D): 28 nM
IC50 (PSN1 cells): > 10000 nM
inhibition at 0.1 µM (HCT116 cells): 4%
IC50 (ASPC1 cells): 2550 nM
inhibition at 0.1 µM (ASPC1 cells): 18%

CCc1c(F)ccc2cc(O)cc(N3CCc4c(nc(OC[C@@]56CCCN5C[C@H](F)C6)nc4N4CCCn5nc(C(=O)N6CC7CCCC6C7)cc5C4)C3)c12 (stereo partly drawn) [Example 328, 6-azabicyclo[3.2.1]octan-6-yl(5-(7-(8-ethyl-7-fluoro-3-hydroxynaphthalen-1-yl)-2-(((2R,7aS)-2-fluorohexahydro-1H-pyrrolizin-7a-yl)methoxy)-5,6,7,8-tetrahydropyrido[3,4-d]pyrimidin-4-yl)-5,6,7,8-tetrahydro-4H-pyrazolo[1,5-a][1,4]diazepin-2-yl)methanone]
inhibition at 0.1 µM (H358 cells): 94%
inhibition at 0.1 µM (A549 cells): 72%
inhibition at 0.01 µM (KRas WT): 88%
inhibition at 0.1 µM (H460 cells): 54%
inhibition at 0.01 µM (KRas Q61H): 91%
inhibition at 0.01 µM (KRas G12C): 96%
IC50 (MKN1 cells): 23.5 nM
inhibition at 0.01 µM (KRas G12S): 95%
inhibition at 0.01 µM (KRas G12A): 87%
IC50 (H727 cells): 14 nM
inhibition at 0.01 µM (KRas G13D): 91%
IC50 (PSN1 cells): 5570 nM
inhibition at 0.1 µM (HCT116 cells): 8%
IC50 (ASPC1 cells): 11 nM

CCc1c(F)ccc2cc(O)cc(N3CCc4c(nc(OC[C@@]56CCCN5C[C@H](F)C6)nc4N4CCCn5nc(C(=O)N6CC7CCC6C7)cc5C4)C3)c12 (stereo partly drawn) [Example 307, 2-azabicyclo[2.2.1]heptan-2-yl(5-(7-(8-ethyl-7-fluoro-3-hydroxynaphthalen-1-yl)-2-(((2R,7aS)-2-fluorohexahydro-1H-pyrrolizin-7a-yl)methoxy)-5,6,7,8-tetrahydropyrido[3,4-d]pyrimidin-4-yl)-5,6,7,8-tetrahydro-4H-pyrazolo[1,5-a][1,4]diazepin-2-yl)methanone]
IC50 (H358 cells): 5 nM
inhibition at 0.1 µM (H358 cells): 102%
IC50 (A549 cells): 18 nM
inhibition at 0.1 µM (A549 cells): 76%
inhibition at 0.01 µM (KRas WT): 95%
IC50 (H460 cells): 42 nM
inhibition at 0.1 µM (H460 cells): 82%
inhibition at 0.01 µM (KRas Q61H): 96%
inhibition at 0.01 µM (KRas G12C): 98%
IC50 (MKN1 cells): 9.1 nM
inhibition at 0.01 µM (KRas G12S): 97%
inhibition at 0.01 µM (KRas G12A): 94%
IC50 (H727 cells): 9 nM
inhibition at 0.01 µM (KRas G13D): 94%
IC50 (PSN1 cells): 2970 nM
IC50 (HCT116 cells): 179 nM
inhibition at 0.1 µM (HCT116 cells): 53%
IC50 (ASPC1 cells): 5 nM

C[C@@H]1C[C@@H]1c1c(Cl)cc2[nH]ncc2c1N1CCc2c(nc(OC[C@@]34CCCN3C[C@H](F)C4)nc2N2CCC[C@]3(C2)NC(=O)NC3=O)C1 [Example 448, (R)-7-(7-(6-chloro-5-((1S,2R)-2-methylcyclopropyl)-1H-indazol-4-yl)-2-(((2R,7aS)-2-fluorohexahydro-1H-pyrrolizin-7a-yl)methoxy)-5,6,7,8-tetrahydropyrido[3,4-d]pyrimidin-4-yl)-1,3,7-triazaspiro[4.5]decane-2,4-dione]
IC50 (H358 cells): 24 nM
IC50 (A549 cells): 369 nM
IC50 (KRas WT): < 2 nM
IC50 (H460 cells): 156 nM
IC50 (KRas Q61H): < 2 nM
IC50 (KRas G12C): < 2 nM
IC50 (MKN1 cells): 22.4 nM
IC50 (KRas G12S): < 2 nM
IC50 (KRas G12A): < 2 nM
IC50 (H727 cells): 280 nM
IC50 (KRas G13D): < 2 nM
IC50 (PSN1 cells): 1000 nM
IC50 (HCT116 cells): 196 nM
IC50 (ASPC1 cells): 631 nM

CCc1c(F)ccc2cc(O)cc(N3CCc4c(nc(OC[C@@]56CCCN5C[C@H](F)C6)nc4N4CCCn5nc(C(=O)N6CC7CC6CO7)cc5C4)C3)c12 (stereo partly drawn) [Example 323, (2-oxa-5-azabicyclo[2.2.1]heptan-5-yl)(5-(7-(8-ethyl-7-fluoro-3-hydroxynaphthalen-1-yl)-2-(((2R,7aS)-2-fluorotetrahydro-1H-pyrrolizin-7a(5H)-yl)methoxy)-5,6,7,8-tetrahydropyrido[3,4-d]pyrimidin-4-yl)-5,6,7,8-tetrahydro-4H-pyrazolo[1,5-a][1,4]diazepin-2-yl)methanone]
IC50 (H358 cells): 1 nM
inhibition at 0.1 µM (H358 cells): 102%
IC50 (A549 cells): 14 nM
inhibition at 0.1 µM (A549 cells): 96%
inhibition at 0.01 µM (KRas WT): 98%
IC50 (H460 cells): 22 nM
inhibition at 0.1 µM (H460 cells): 81%
inhibition at 0.01 µM (KRas Q61H): 99%
inhibition at 0.01 µM (KRas G12C): 99%
IC50 (MKN1 cells): 4.4 nM
inhibition at 0.01 µM (KRas G12S): 99%
inhibition at 0.01 µM (KRas G12A): 97%
IC50 (H727 cells): 2 nM
inhibition at 0.1 µM (H727 cells): 77%
inhibition at 0.01 µM (KRas G13D): 98%
IC50 (PSN1 cells): 1560 nM
IC50 (HCT116 cells): 52 nM
inhibition at 0.1 µM (HCT116 cells): 72%
IC50 (ASPC1 cells): 2 nM
inhibition at 0.1 µM (ASPC1 cells): 102%
